In patent publication US20060148828A1, “Combination comprising a CDK inhibitor and a topoisomerase 1 inhibitor for the treatment of cancer and other proliferative diseases” (Cyclacel Limited, priority 2003, published 2006):

Tests used:
mut-p53 HT29 cells [1] = experiment: Cell cycle progression (BrdU incorporation); conditions: 1 μM CPT-11, up to 36 h, G0/G1 synchronized cells
mut-p53 HT29 cells [2] = experiment: Western blot of p21WAF1/CIP1 and cdk1 protein expression; assay type: cell-based, human; conditions: 1 μM CPT-11

With `CCc1c2c(nc3ccc(OC(=O)N4CCC(N5CCCCC5)CC4)cc13)-c1cc3c(c(=O)n1C2)COC(=O)[C@]3(O)CC` [CPT-11, irinotecan] the cell cycle blockage (mut-p53 HT29 cells [1]) was “arrested in late S phase” and the cdk1 protein levels (mut-p53 HT29 cells [2]) was “increased levels of cdk1”.
